Measured values published in PubChem BioAssay AID624418 (National Center for Advancing Translational Sciences (NCATS), 2012).
In all, about 410,000 compounds went through this assay and about 530 (0.13%) were called active. Inconclusive means that the source gave no clear call. Such entries were picked first, then a sample of the others. The call rests on the fitted dose curve; in most records, active means well fitted inhibition curve with a large enough effect; inconclusive means small, poorly fitted or top-dose-only effect, or another doubt; inactive means no such curve, though single readings can be large or run the other way. A potency beside an inconclusive call is a rough fit, not a confirmed value.

Experiment: qHTS of GLP-1 Receptor Inverse Agonists: Cytotox Screen
Conditions: HEK293 cAMP-luciferase reporter cells, luminescence, 24 h; activity change, negative = inhibition: at 38.3 µM (top of the series) unless noted
How it was run: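 Cells in DMEM/10% Nu serum/1% pen-strep, 1536-well format. Pre-incubated 12 h, dosed with 23 nL compound, incubated a further 24 h. Luciferase detection, 12 min at room temp, luminescence.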
On the % scale 0 is the no-effect control and ±100 the full control effect; potency means the concentration at half of the fitted maximal effect.

Row | Compound | activity change, negative = inhibition | Potency
1 | O=C(NCc1ccncc1)NC1CCCCC1 | inactive: 11.3% | 
2 | COCC(=O)OC/C(O)=C(\C#N)c1nc2ccccc2[nH]1 |  | inconclusive: 6.31 µM [inhibitor, partial curve, poor fit]
3 | CC(=O)c1ccc(NC(=O)Cn2cc(S(=O)(=O)Cc3ccccc3Cl)c3ccccc32)cc1 | inactive: -12.9% | 
4 | O=C(CC(c1ccccc1)c1cc(Br)ccc1O)N1CCCCC1 (stereo unspecified) | inactive: -20.7% | 
5 | COc1ccc(CNCCC(c2ccccc2)c2ccc3c(c2)OCO3)cc1 (stereo unspecified) |  | inconclusive: 11.2 µM [inhibitor, partial curve, poor fit]
6 | O=C(O)CC/C(=C\c1ccc(N2CCCC2)c([N+](=O)[O-])c1)c1nc2ccccc2s1 | inactive: -6.76% | 
7 | Cn1c(/C=C/c2ccc([N+](=O)[O-])o2)nc2ccccc2c1=O |  | inconclusive: 2.82 µM [inhibitor, full curve, poor fit]
8 | COc1ccccc1NC1=C(C)C(=O)CC1 | inactive: -25.3% | 
9 | CCCC1=Nc2cc(C(=O)NCCc3ccccc3)ccc2Sc2ccc(C)cc21 |  | inconclusive: 3.55 µM [inhibitor, full curve, poor fit]
10 | O=C(N/N=C/c1cccn1-c1ccc([N+](=O)[O-])cc1)c1cccnc1 |  | inconclusive: 10 µM [inhibitor, single point]
11 | CC(C)Oc1ccc(CNC(=O)CC(c2ccccc2)c2cc(Cl)ccc2O)cc1 (stereo unspecified) |  | inconclusive: 31.6 µM [inhibitor, single point]
12 | CCOc1ccc(NC(=O)/C=C\C(=O)N(c2ccc(C(C)C)cc2)C(C(=O)NCc2ccco2)c2ccc(F)cc2)cc1 (stereo unspecified) | inactive: -8.06% | 
13 | CC(Oc1cccc(Br)c1)C(=O)NNC(=O)c1ccccn1 (stereo unspecified) |  | inconclusive: 10 µM [inhibitor, partial curve]
14 | COc1ccc(NC(=O)Cn2cnc3ccc(S(=O)(=O)N4CCC(C)CC4)cc3c2=O)cc1OC | inactive: -16.1% | 
15 | Cc1ccc(/C=C/C(=O)N2CCN(S(=O)(=O)c3ccc(C)c(C)c3)CC2)o1 |  | inconclusive: 31.6 µM [inhibitor, single point]
16 | CC(C)N1CCc2c(sc(NC(=O)c3ccc(S(=O)(=O)N4CCc5ccccc54)cc3)c2C(N)=O)C1 |  | inconclusive: 14.1 µM [inhibitor, single point]
17 | O=C1Cc2cccc(=O)c(O)c2C(=O)O1 | inactive: -5.21% | 
18 | COc1ccc(NC(=O)CCN2CCN(S(=O)(=O)c3ccc(Cl)cc3)CC2)cc1 |  | inconclusive: 7.94 µM [inhibitor, partial curve]
19 | CC1=C(C(=O)N(C)C)CC(CC(=O)NC2CCCCC2)C(=O)N1Cc1ccc(F)cc1 (stereo unspecified) | inactive: 0.695% | 
20 | CSC1=NC(C)(C)C=C(/C=C/c2ccc(Cl)cc2Cl)N1 |  | inconclusive: 31.6 µM [inhibitor, single point]
21 | CC(C)=C1SC(N2CCN(c3ccc(C)c(Cl)c3)CC2)=NC1=O |  | inconclusive: 12.6 µM [inhibitor, single point]
22 | COc1cc(Cn2c3ccc(NC(=O)CCc4ccccc4)cc3c(=O)n2C)ccc1F |  | inconclusive: 17.8 µM [inhibitor, partial curve, poor fit]
23 | Cc1ccccc1N=C1NN=C(c2ccccc2F)CS1 |  | inconclusive: 28.2 µM [inhibitor, single point]
24 | O=C(C1=NN[C@@H]2C(=O)N(c3cccc(C(F)(F)F)c3)C(=O)[C@H]12)C(c1ccccc1)c1ccccc1 |  | inconclusive: 7.08 µM [inhibitor, partial curve, poor fit]

Row | Compound | activity change, negative = inhibition | Potency
25 | CC(NC(=O)Nc1ccc(F)cc1)c1ccc2c(c1)OCO2 (stereo unspecified) | inactive: 2.86% | 
26 | Clc1cccc(Cl)c1/C=N/Nc1c(Cl)cncc1Cl |  | inconclusive: 0.794 µM [inhibitor, full curve, poor fit]
27 | CN(CC(=O)Nc1ccc(Cl)c(C(F)(F)F)c1)C(=O)C1CCN(C(=O)c2ccc(Cl)cc2)CC1 |  | inconclusive: 31.6 µM [inhibitor, single point]
28 | COc1ccc(N2CCN(CCCNC(=O)Cn3c(-c4cccs4)cc4ccccc43)CC2)cc1 | inactive: -3.67% | 
29 | COc1ccc(N=C2O/C(=C/c3sc(=S)n(CC4CCCO4)c3O)N=C2C#N)cc1 (stereo unspecified) |  | inconclusive: 28.2 µM [inhibitor, single point]
30 | O=C(CSC1=NCCN1)NC1CCCCCC1 |  | inconclusive: 28.2 µM [inhibitor, single point]
31 | COc1cc(C(=O)OCC(=O)N(CC(C)C)C2CCS(=O)(=O)C2)cc(OC)c1C (stereo unspecified) | inactive: -10.8% | 
32 | COc1ccc2nc(N(Cc3cccnc3)C(=O)C3CCCCC3)sc2c1 | inactive: -2.79% | 
33 | Fc1ccc(/C=N/NC2=Nc3cccc4cccc2c34)cc1 |  | inconclusive: 15.8 µM [inhibitor, single point]
34 | CCC(C)Sc1cccc(-c2nc3cnccn3c2NC2CCCCC2)c1 (stereo unspecified) | inactive: 113% | 
35 | O=C(C1CCN(S(=O)(=O)c2ccccc2F)CC1)N1CCc2ccccc21 | inactive: 6.62% | 
36 | COc1cccc(CNC(=O)CCC(=O)N2CC(C)Oc3ccccc32)c1OC (stereo unspecified) | inactive: -23.3% | 
37 | Cc1ccccc1NS(=O)(=O)c1ccc(NC(=O)c2nc3ncccn3n2)cc1 | inactive: -5.95% | 
38 | CC#CC[N+](C)(C)CCCCCCCCCCCC |  | inconclusive: 0.0708 µM [inhibitor, full curve, poor fit]
39 | Cc1ccc2[nH]c3c(N4CCN(Cc5ccccc5)CC4)ncnc3c2c1 |  | inconclusive: 28.2 µM [inhibitor, single point]
40 | Cc1cc(C)c(S(=O)(=O)Nc2ccccc2C(=O)OCC(=O)NCc2ccccc2)c(C)c1 | inactive: 11.2% | 
41 | Cc1ccc(SCC(=O)NCc2ccccc2C)cc1 | inactive: 2.84% | 
42 | CN(CC(=O)Nc1ccccc1Br)C(=O)c1cccnc1Nc1cccc(C(F)(F)F)c1 |  | inconclusive: 12.6 µM [inhibitor, single point]
43 | O=C(NCc1ccccc1)Nc1cccn(Cc2ccccc2)c1=O | inactive: 2.9% [at 1.53 µM] | 
44 | CC(C)(C)c1ccc(Cn2c(=N)n(CC(O)c3ccco3)c3ccccc32)cc1 (stereo unspecified) |  | inconclusive: 10 µM [inhibitor, partial curve, poor fit]
45 | CCc1c(C2(O)CCCCC2)[nH]c2cnccc12 |  | inconclusive: 28.2 µM [inhibitor, single point]
46 | CCN(Cc1ccccc1)S(=O)(=O)c1ccc2c(c1)CC(C)N2C(=O)C1CCC1 (stereo unspecified) | inactive: -3.09% | 
47 | Cc1ccc2onc(CC(=O)Nc3ccc(C(C)C)cc3)c2c1 | inactive: -8.39% | 
48 | Cc1cc(Cl)ccc1NC(=S)NCCC(c1ccccc1)c1ccccc1 |  | inconclusive: 22.4 µM [inhibitor, single point]

Row | Compound | activity change, negative = inhibition | Potency
49 | O=C(CCCN1C(=O)/C(=C/c2cccc(Br)c2)SC1=S)NCCCN1CCOCC1 |  | inconclusive: 2.82 µM [inhibitor, partial curve, poor fit]
50 | COc1ccc(NC(=O)c2c(NC(=O)c3ccc(Br)cc3)sc3c2CCCC3)cc1 |  | inconclusive: 28.2 µM [inhibitor, single point]
51 | COC(=O)c1[nH]c2c(c1C)C(=O)CC(c1cc(OC)ccc1OC)C2 (stereo unspecified) | inactive: 7.13% | 
52 | O=C(Nc1nc(-c2ccc(F)c(F)c2)cs1)c1cc([N+](=O)[O-])ccc1N1CCOCC1 | inactive: -0.347% | 
53 | CCN(c1ccccc1)S(=O)(=O)c1ccc(Cl)c(NC(=O)CN2CCN(C)CC2)c1 | inactive: -6.07% | 
54 | FC(F)(F)c1nc(SCc2ccc(Cl)cc2Cl)n[nH]1 |  | inconclusive: 28.2 µM [inhibitor, single point]
55 | CCc1ccc([C@@H]2CC=C(C(=O)O)[C@H](c3ccc(F)cc3)N2S(=O)(=O)c2ccc(C)cc2)cc1 | inactive: -1.26% | 
56 | Cc1ccc(S(=O)(=O)n2cccc2/C=C/[N+](=O)[O-])cc1 |  | inconclusive: 10 µM [inhibitor, partial curve, poor fit]
57 | COc1ccc(-c2ccc(/C=C3\C(=O)N(c4ccccc4)N=C3c3ccccc3)o2)c([N+](=O)[O-])c1 |  | inconclusive: 2.51 µM [inhibitor, partial curve, poor fit]
58 | CCc1ccc(NC(=O)CSc2nc3c(sc4ccccc43)c(=O)n2CCCOC(C)C)cc1 | inactive: 2.76% | 
59 | CCCCNC(=S)NNC(=O)CCn1cc(C)cn1 |  | inconclusive: 10 µM [inhibitor, partial curve]
60 | O=C(NC(=S)NC1CCCCC1)c1ccccc1 |  | inconclusive: 8.91 µM [inhibitor, single point]
61 | COc1ccc(-c2nc3ccc(NS(=O)(=O)c4ccc(Cl)cc4)cc3o2)cc1 | inactive: 23.7% | 
62 | O=C(COc1ccc2ccccc2c1Br)Nc1ccncc1 |  | inconclusive: 28.2 µM [inhibitor, single point]
63 | C/C(=N\Nc1ccc(C#N)cc1[N+](=O)[O-])c1ccc(O)cc1 |  | inconclusive: 28.2 µM [inhibitor, single point]
64 | NS(=O)(=O)c1ccc(NC(=S)NC(=O)c2ccc(-c3ccccc3)cc2)cc1 |  | inconclusive: 11.2 µM [inhibitor, single point]
65 | COc1cc(/C=C2\SC(=S)N(NC(=O)c3ccccc3O)C2=O)ccc1O |  | inconclusive: 12.6 µM [inhibitor, single point]
66 | CCCCCCn1c(O)c(/C=C2\C=NN=C2c2ccccc2)sc1=S |  | active: 11.2 µM
67 | O=C(Nc1ccc(S(=O)(=O)Nc2nccs2)cc1)c1cc(-c2ccccc2Cl)nc2ccccc12 |  | inconclusive: 10 µM [inhibitor, single point]
68 | O=Cc1ccccc1OCCOc1ccccc1C=O |  | inconclusive: 10 µM [inhibitor, partial curve, poor fit]
69 | Cc1cc(C(=O)NNC(=O)c2ccc(C)c([N+](=O)[O-])c2)c(C)o1 | inactive: 10.7% | 
70 | CCC(C)NC(=O)c1cccc(NC(=O)c2nsc3ccccc23)c1 (stereo unspecified) | inactive: -15.2% | 
71 | OCCCn1c(C2CCCN2c2nc(-c3ccc(Cl)cc3)cs2)nc2cc(Cl)c(Cl)cc21 (stereo unspecified) |  | inconclusive: 28.2 µM [inhibitor, single point]
